Experimental data taken from article PMC4336329 (PLoS ONE, 2015).
The campaign covered roughly 310,000 compounds. About 14,000 (4.5%) showed an effect of 50% or more. Effects have a minus sign here. The list shows a part of the results.

Molecular target: human ether-à-go-go-related gene (hERG) potassium channel (human, UniProt Q12809)
Assay: primary screen, population patch clamp on CHO cells stably expressing hERG
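Also: peak tail current of the secondary pulse compared with the same well before compound.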

human ether-à-go-go-related gene (hERG) potassium channel, sequence (Q12809 whole entry, looked up): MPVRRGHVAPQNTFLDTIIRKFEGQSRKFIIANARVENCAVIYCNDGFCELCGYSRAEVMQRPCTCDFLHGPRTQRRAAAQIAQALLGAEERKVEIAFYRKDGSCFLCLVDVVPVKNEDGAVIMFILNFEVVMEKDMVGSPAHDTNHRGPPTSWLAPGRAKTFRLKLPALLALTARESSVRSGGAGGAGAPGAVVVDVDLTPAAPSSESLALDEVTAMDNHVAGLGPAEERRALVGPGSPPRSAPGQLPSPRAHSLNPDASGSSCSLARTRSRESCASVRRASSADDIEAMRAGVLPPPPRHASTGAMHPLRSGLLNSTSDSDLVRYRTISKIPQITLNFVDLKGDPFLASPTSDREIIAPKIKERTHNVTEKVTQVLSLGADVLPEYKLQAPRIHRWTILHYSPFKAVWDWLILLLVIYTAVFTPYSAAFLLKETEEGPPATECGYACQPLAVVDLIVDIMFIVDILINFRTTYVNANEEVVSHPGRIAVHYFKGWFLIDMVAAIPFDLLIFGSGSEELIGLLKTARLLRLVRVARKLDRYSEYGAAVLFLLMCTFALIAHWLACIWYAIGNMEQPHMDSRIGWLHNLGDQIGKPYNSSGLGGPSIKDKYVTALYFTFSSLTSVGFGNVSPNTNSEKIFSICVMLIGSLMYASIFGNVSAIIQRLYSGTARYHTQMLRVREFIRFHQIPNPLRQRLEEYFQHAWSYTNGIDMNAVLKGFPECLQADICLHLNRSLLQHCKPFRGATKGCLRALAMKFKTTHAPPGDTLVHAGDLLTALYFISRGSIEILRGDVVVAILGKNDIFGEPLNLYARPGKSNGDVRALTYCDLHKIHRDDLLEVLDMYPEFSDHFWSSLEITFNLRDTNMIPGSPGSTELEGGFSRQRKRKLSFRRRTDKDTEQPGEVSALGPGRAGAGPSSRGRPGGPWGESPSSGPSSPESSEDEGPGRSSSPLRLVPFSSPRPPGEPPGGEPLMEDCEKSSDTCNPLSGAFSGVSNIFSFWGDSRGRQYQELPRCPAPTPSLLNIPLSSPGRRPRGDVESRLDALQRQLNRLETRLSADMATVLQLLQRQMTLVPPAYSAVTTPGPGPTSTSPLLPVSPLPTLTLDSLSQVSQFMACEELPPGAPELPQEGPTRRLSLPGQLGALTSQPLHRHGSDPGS

| Compound | hERG current change (%, negative = inhibition) at 10uM [%] |
| --- | --- |
| CS(=O)(=O)c1cccc(S(=O)(=O)N2CCN(c3ccccn3)CC2)c1 | -8.6 |
| O=C(NC1CCCC1)C1CCN(C(=O)NCc2ccccc2)CC1 | -1.23 |
| Cc1cc(C)cc(OCCNC(=O)c2ccc(Br)cc2)c1 | 30.5 |
| CCOc1cc2nc3c4ccccc4n(C)c3nc2cc1OCC | 15.4 |
| COc1ccc(-n2nc(C(=O)NCC(=O)NCc3ccco3)c3ccccc3c2=O)c(OC)c1 | 11.3 |
| CNc1ccc(Cl)nn1 | 18.6 |
| O=C(NCCc1ccc(OC(F)F)cc1)C1CC(=O)N(c2ccc3c(c2)OCCO3)C1 (stereo not shown) | -47.6 |
| O=C(c1cc(-c2ccc(F)cc2)nc2ccccc12)N1CCN(C2CCS(=O)(=O)C2)CC1 (stereo not shown) | -69 |
| N=c1c2c(-c3ccccc3)c(-c3ccccc3)n(Cc3ccco3)c2ncn1Cc1ccccc1 | -69.3 |
| Cc1cc(C)c(S(=O)(=O)N(CC(=O)O)C2CCCCC2)c(C)c1 | -1.08 |
| CCOC(=O)c1c(-c2cccc([N+](=O)[O-])c2)csc1NC(=O)C1CC1 | -1.41 |
| COc1cc(CN2CCC(n3nccc3NC(=O)C3CCOC3)CC2)ccc1F (stereo not shown) | -6.78 |
| Cc1ccccc1CN1CCN(C(=O)c2ccc(F)cc2)CC1.O=C(O)C(=O)O | 9.11 |
| COc1ccc(NC(=O)c2ccccc2NS(=O)(=O)c2ccc(C)cc2)c([N+](=O)[O-])c1 | 9.99 |
| COCCNc1nnc(Cc2ccc(OC)c(OC)c2)c(=O)[nH]1 | 0.23 |
| COCC1CCCN(Cc2cn[nH]c2-c2cc3ccccc3o2)C1 (stereo not shown) | -47.5 |
| Cc1cc(C)nc(NC(=O)c2cccs2)n1 | 11.5 |
| COCc1c(C(=O)N/N=C/c2c[nH]c3ccccc23)nnn1-c1nonc1N | 18.2 |
| Cc1cc(Cl)ccc1NC(=O)CN1CCCC1 | 27.1 |
| O=C(OCC1COc2ccccc2O1)c1c(F)cccc1F (stereo not shown) | 5.16 |
| COc1ccc(Cn2nnnc2CN2CCC(O)(c3ccccc3F)CC2)cc1 | -5.36 |
| COc1ccc(CCn2c3c(c(=O)[nH]c2=O)C(NC(=O)c2cccs2)(C(F)(F)F)C(=O)N3)cc1OC (stereo not shown) | 6.47 |

| Compound | hERG current change (%, negative = inhibition) at 10uM [%] |
| --- | --- |
| N#CCCN(Cc1ccccc1)C(=O)Nc1ccccc1 | 18.5 |
| Cc1ccc(C)c(OCCSc2nnc(-c3cccnc3)n2N)c1 | 10.3 |
| CN[C@H]1CCc2cc(OC)c(OC)c(OC)c2-c2ccc(N(C)CC(OC)OC)c(=O)cc21 | 23.5 |
| O=C(CSC(=S)N1CCOCC1)Nc1nc(-c2ccccc2)c(-c2ccccc2)o1 | 8.56 |
| CC(NC(=O)Nc1cccc([N+](=O)[O-])c1)(C(F)(F)F)C(F)(F)F | 15.5 |
| COc1ccc(C(=O)CSc2nnc(-c3ccco3)o2)cc1 | 18.8 |
| O=C(Nc1ccccc1OC(F)F)c1oc2ccccc2c1COc1ccccc1 | 0.283 |
| NC(=NC1CCCCC1)NS(=O)(=O)c1ccccc1 | 13.6 |
| O=C(O)CCCC(=O)NCCc1cccc(Cl)c1 | 10.3 |
| CCOc1ccc(NC(=O)CSc2nnc(C34CC5CC(CC(C5)C3)C4)n2C)cc1 | -0.647 |
| O=C(Nc1ccccc1C(=O)N/N=C/c1ccccc1)c1ccco1 | -2.78 |
| Cc1ccccc1C(=O)N1CCN(c2nc(N3CCOCC3)nc(N3CCOCC3)n2)CC1 | 8.56 |
| CCOc1ccc(Br)cc1C(=O)N/N=C/c1c[nH]c2ccccc12 | 21.5 |
| O=C(CCl)NCCCCCCCCCNC(=O)CCl | 9.69 |
| Cc1cc(/C=N/O)c(C)n1-c1ccccc1 | 12.8 |
| CCN(CC)CCNC(=O)c1ccc2c(c1)NC(=O)c1ccccc1S2 | -31.9 |
| Cc1cc(NC(=O)C(C)SCC(=O)Nc2ccc(SC(F)F)cc2)no1 (stereo not shown) | -32.7 |
| C=CCNC(=O)NS(=O)(=O)c1ccc(C)cc1 | 16.2 |
| Cc1ccc(S(=O)(=O)NC(=O)NCc2ccc3c(c2)OCO3)cc1 | 13.7 |
| CCOc1ccc2[nH]c3ncccc3c(=O)c2c1 | 18 |
| COc1ccc(NC(=O)COc2ccc(C(=O)NCc3cccnc3)cc2OC)cc1 | -6.31 |
